This is an account of results in patent US12350317B2, “Immunotherapy for the treatment and prevention of inflammatory bowel disease” (THE UAB RESEARCH FOUNDATION, priority 2019, dated 2025).

This experiment has as its system donor CBir1Tg CD4+ T cells. As to conditions: day 28.

Consider `CO[C@H]1C[C@@H]2CC[C@@H](C)[C@@](O)(O2)C(=O)C(=O)N2CCCC[C@H]2C(=O)O[C@H]([C@H](C)C[C@@H]2CC[C@@H](O)[C@H](OC)C2)CC(=O)[C@H](C)/C=C(\C)[C@@H](O)[C@@H](OC)C(=O)[C@H](C)C[C@H](C)/C=C/C=C/C=C/1C` [rapamycin], for which the “Effect on host CD4+ cells (TM, Treg)” value is given as “no effect”.
